# The other results are listed elsewhere or left out. Shown are side measurements of this screen, not its main read-out; they come without a call.
# Experiments:
# Assay in all cases: Primary Screen for Target Class Profiling of Small Molecule Inhibitors of Methyltransferases
# [1] = biological target: Glycine N-methyltransferase (Homo sapiens) (UniProt Q14749); conditions: purified enzyme, MTase-Glo SAH luminescence; measured here: GNMT inhibition; at 40 µM; stronger effect = lower value
# How it was run: (§1)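 Each enzyme was assayed with SAM and its substrate. SAH formation detected by MTase-Glo luminescence; single-point 40 uM screen[…].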
# [2] = biological target: Guanidinoacetate N-methyltransferase (Homo sapiens) (UniProt Q14353); conditions: purified enzyme, MTase-Glo SAH luminescence; measured here: GAMT inhibition; at 40 µM; stronger effect = lower value
# How it was run: as §1
# [3] = biological target: Histamine N-methyltransferase (Homo sapiens) (UniProt P50135); conditions: purified enzyme, MTase-Glo SAH luminescence; measured here: HNMT inhibition; at 40 µM; stronger effect = lower value
# How it was run: as §1
# [4] = biological target: Nicotinamide N-methyltransferase (Homo sapiens) (UniProt P40261); conditions: purified enzyme, MTase-Glo SAH luminescence; measured here: NNMT inhibition; at 40 µM; stronger effect = lower value
# How it was run: as §1
# [5] = biological target: Phenylethanolamine N-methyltransferase (Homo sapiens) (UniProt P11086); conditions: purified enzyme, MTase-Glo SAH luminescence; measured here: PNMT inhibition; at 40 µM; stronger effect = lower value
# How it was run: as §1
# On the % scale 0 is the no-effect control and ±100 the full control effect.
Structure (SMILES),"activity change, negative = inhibition [1] [%]","activity change, negative = inhibition [2] [%]","activity change, negative = inhibition [3] [%]","activity change, negative = inhibition [4] [%]","activity change, negative = inhibition [5] [%]"
O=C(c1cncc(Br)c1)N1CCC(N2CCCC2)CC1,6.95,7.52,6.71,-5.5,6.35
Cc1ccc(N2C(=O)c3ccc(-c4ccco4)n3CC2(C)C(=O)NC2CCCC2)cc1C (stereo not drawn),-6.07,1.17,-2.68,-0.141,-6.25
CCCN1C(=O)c2cc(C(=O)NCc3ccc(CC)cc3)nn2CC1(C)C(=O)NC1CCCC1 (stereo not drawn),-1.01,0.355,-0.424,-2.6,-4.38
CCN1C(=O)c2cc(C(=O)NCCCN3CCN(C)CC3)nn2CC1(C)C(=O)NC1CCCC1 (stereo not drawn),4.66,3.56,-3.84,4.67,3.52
N[C@H](C(=O)O)[C@H]1C[C@@H]1C(=O)O,-6.21,4.71,1.8,-4.35,5.63
O=C(c1ccccc1)N1CCC2(CC1)C(=O)NCN2Cc1ccc(Cl)cc1,-2.16,1.12,1.02,-0.33,2.21
Cc1ccc(NC(=O)Cn2c(=O)oc3cc(S(=O)(=O)NC4CCCC4)ccc32)cc1,3.55,0,8.67,6.92,-0.741
COc1cccc(CNC(=O)CCc2nnc3n(CCc4ccccc4)c(=O)c4ccccc4n23)c1,-1.36,0,8.25,1.38,0.701
COc1cc(OC)cc(N2C(=O)c3cc(-c4cccs4)nn3CC2(C)C(=O)NC2CCCCC2)c1 (stereo not drawn),-3.65,4.53,2.16,0,-2.17
Cc1ccc(CCNC(=O)Cn2ccc3cc(S(=O)(=O)N4CCCC4)ccc32)cc1,-5.21,0.133,-7.39,-7.52,-4.76
Cc1nn2c(c1-c1cccnc1N1CCOCC1)N(C(=O)c1cc3ccccc3n1C)CCC2,-2.71,-5.26,0.237,-12.5,-6.32
O=C(O)c1cc(I)ccc1NC(=O)[C@H](Cc1ccccc1)NCc1ccccc1,-13.5,1.75,10.7,-16.1,3.88
CC(C)CNC(=O)c1ccc2c(=O)n(C(C)C)c3nn(CC(=O)Nc4ccccc4Cl)c(=O)n3c2c1,4.05,0,11,7.33,7.41
COCC(=O)NC[C@H]1O[C@@H](CO)[C@@H](O)[C@H]1N1CCc2ccccc2C1,0.583,-6.84,0.723,6.1,-7.37
CC(C)(C)CC(=O)N1CCN2C(=O)c3ccc(Cl)cc3NC(=O)[C@H]2C1,-0.048,0.025,0.285,-3.06,-12.3
Cc1ccc(Cn2c(=O)c3ccccc3n3c(-c4ccc(F)c(F)c4)nnc23)cc1,-6.4,3.03,3.55,4.94,-3.57
COc1ccccc1CN1CCCC(CN(CCN(C)C)C(=O)c2ccccc2OC)C1 (stereo not drawn),-2.43,-2.55,-4.39,-7.73,14.9
CC(=O)CC(=O)Nc1ccc(Cl)c(C(F)(F)F)c1,-4.25,7.67,-3.66,-16.3,-13.4
CN(CCCN1c2ccccc2CCc2ccccc21)C(=O)C1CNCCO1 (stereo not drawn),-6.94,-4.78,-5.75,-16.7,-4.32
Cc1ccc(CCNC(=O)CCc2nnc3n(Cc4ccccc4)c(=O)c4ccccc4n23)cc1,-4.83,2.62,9.84,13.5,3.58
CN1CCN(C2=Nc3ccccc3Nc3ccc(OS(=O)(=O)C(F)(F)F)cc32)CC1,-4.7,-3.9,6.02,-22.7,-0.888

Structure (SMILES),"activity change, negative = inhibition [1] [%]","activity change, negative = inhibition [2] [%]","activity change, negative = inhibition [3] [%]","activity change, negative = inhibition [4] [%]","activity change, negative = inhibition [5] [%]"
COC(=O)Cn1c(=O)oc2cc(S(=O)(=O)NCCN3CCC(C)CC3)ccc21,4.23,0,1.68,6.78,2.59
CCC(C)NC(=O)c1ccc2c(=O)n(CC(C)C)c3nn(Cc4cccc(OC)c4)c(=O)n3c2c1 (stereo not drawn),3.61,0.61,8.43,2.73,8.66
CC1CCN(CCNS(=O)(=O)c2ccc3c(c2)oc(=O)n3C)CC1,4.26,13.6,-26.7,13.7,0.18
COc1ccc(N2CC3CCC(C2)N3CC2CCCC2)cc1,-3.85,-4.5,-22.1,-8.61,-18.9
COc1cccc(-c2cc(C3CCN(C(=O)Nc4ccccc4C(F)(F)F)CC3)[nH]n2)c1,-6.38,0.028,-2.59,-6.89,-4.76
O=C(NCCCCN1CCN(c2cccc(Cl)c2Cl)CC1)c1cc2ccccc2s1,-0.797,0.624,0.017,-26.4,-24.2
Cc1cccc(=O)n1CCC(=O)NCc1cc2n(n1)CCN(C(=O)N(C)C)C2,-3.51,0.24,1.84,-1.84,0.164
O=C1Nc2ccccc2C2(CCN(C(=O)c3ccccc3F)C2)O1 (stereo not drawn),-30.4,-7.29,-5.51,-21.9,-17.8
O=C(NCc1cccc(Cl)c1)c1sc(=S)n2c1[nH]c(=O)c1cc3c(cc12)OCO3,-63.2,-1.03,-4.81,-74.7,-59.9
Cc1ccc(CC(=O)N2CCC3(C2)C(=O)N(C)c2ccccc23)cc1 (stereo not drawn),-5.01,-2.65,-2.63,-2.96,1.03
Fc1ccc2c(CCNCc3cccc(OCC(F)(F)C(F)F)c3)c[nH]c2c1,-4.26,4.39,-53,-19.1,-10.2
O=C(Cn1nc2n(Cc3ccccc3)c(=O)c3ccccc3n2c1=O)Nc1cc(F)ccc1F,5.89,0.886,6.38,0.621,6.37
CC(Sc1nc2c(cnn2-c2cccc(Cl)c2)c(=O)[nH]1)C(N)=O (stereo not drawn),–,-22.6,–,-30.5,-27
CCC(C)NC(=O)c1ccc2c(=O)n(C(C)C)c3nn(Cc4ccccc4)c(=O)n3c2c1 (stereo not drawn),-4.82,-1.82,7.78,-7.8,-4.16
CC(c1cccc(-c2cccc(C(=O)N(C)C)n2)c1)N1CCCC1 (stereo not drawn),-5.88,-11.2,-7.13,-16.1,-16.7
O=C(NC1CCCCC1)c1ccc2nnc(Cc3ccc(Cl)cc3)n2c1,-7.18,-0.218,-31.4,-10.1,0.713
CC(C)=CCc1c(O)cc2oc3cc(C)cc(O)c3c2c1C,-3.22,-0.636,-2.25,-10.8,-0.173
Cc1cc(C)c2c(N)c(C(=O)NCc3ccc(Cl)cc3)sc2n1,-21,0.479,-38.2,-14.6,-1.89
COc1ccc(OC)c2c1cc1n2CC(C)(C(=O)NC2CCCCC2)N(Cc2ccc(C)cc2)C1=O (stereo not drawn),-19,-0.482,-6.06,-11.8,-14.3
CCNS(=O)(=O)c1ccc(Cl)c(-c2nnc(-c3ccccc3)o2)c1,-15.6,1.34,3.93,-2.16,-0.986
C=CCN1CCN(C(=O)c2ccc3c(c2)C(O)CCCCCN3CCOC)CC1 (stereo not drawn),-0.283,-3.68,-1.47,-6.39,-8.42

Structure (SMILES),"activity change, negative = inhibition [1] [%]","activity change, negative = inhibition [2] [%]","activity change, negative = inhibition [3] [%]","activity change, negative = inhibition [4] [%]","activity change, negative = inhibition [5] [%]"
O=C(OCCOCCO)c1ccccc1Nc1cccc(C(F)(F)F)c1,2.79,17.4,5.22,-6.95,2.8
CCN(CC)c1nc2c(-c3cccc(F)c3)nnn2c2ccccc12,-5.64,-0.544,-5.34,-7.64,-13.2
CCN1C(=O)c2cc(C(=O)NCc3cccnc3)nn2CC1(C)C(=O)NC1CCCC1 (stereo not drawn),-2.29,0.735,-0.706,-2.04,-1.52
CC(C)CNC(=O)c1ccc2c(=O)n(Cc3ccccc3)c3nn(CC(=O)NC4CCCC4)c(=O)n3c2c1,5.63,0.353,11.5,-3.51,3.01
O=C(CCc1nnc2n(CCc3ccccc3)c(=O)c3ccccc3n12)NCc1ccc(Cl)cc1,-4.97,0,1.97,5.66,-2.44
COc1ccc(CNC(=O)c2cc3n(n2)CC(C)(C(=O)NC2CCCC2)N(C)C3=O)cc1 (stereo not drawn),9.22,0,6.18,0.515,3.72
Cc1ccccc1Cn1cc(-c2ccncc2)cc1C(=O)N1CCCC1,-8.84,-3.61,-7.52,-22.4,5.4
COc1c2c(c(CO)c3c1C(=O)OC3)OC1(C)CCC3(O)C(C)(C)OC(=O)CCC3(C)C1C2 (stereo not drawn),0.377,1.24,11.7,-11.3,-5.64
Cn1nc(C(=O)N2CCOc3ccc(CCC(N)=O)cc3C2)c2ccccc21,-2.48,-6.04,-1.48,-2.88,-1.69
O=C(Nc1ccccc1F)N1CC2CCC(C1)N2Cc1ccc(-c2cc(F)cc(F)c2)cc1,-0.989,-3.27,-5.85,-8.88,-5.26
COc1ccccc1CNC(=O)C1(C)Cn2nc(-c3ccccc3)cc2C(=O)N1CCC(C)C (stereo not drawn),5.75,0.819,7.73,8.63,2.66
CCN1CCN(Cc2ccc(Nc3ncc(F)c(-c4cc(F)c5nc(C)n(C(C)C)c5c4)n3)nc2)CC1,-83.4,-62.9,-75.8,-69.1,-74.1
COCCc1ccc(OCC(O)CNC(C)C)cc1 (stereo not drawn),11,12.7,11.3,-2.77,3.86
CN(C)C[C@@H]1CN(Cc2cccnc2)C[C@H]1NC(=O)CCn1cccn1,-1.66,2.15,-0.078,0.68,5.44
CCOC(=O)CNC(=O)C1(C)Cn2nc(-c3ccc(OC)cc3)cc2C(=O)N1C (stereo not drawn),2.37,0.946,4.88,9.69,2.16
COc1cccc(NC(=O)Cn2c(=O)oc3cc(S(=O)(=O)N4CCCCC4)ccc32)c1,-0.687,0,5.63,-3.85,-29.7
O=C(c1cc2n(n1)CC(c1ccc(Cl)cc1)OC2)N1CCCCC1 (stereo not drawn),-2.38,-2.28,-0.025,-4.96,-8.55
O=C(NCCCc1ccccc1)C1CN(C2CCCC2)C(=O)N1 (stereo not drawn),-8.28,-6.46,-4.57,-7.95,-9.2
Cc1ccc(CN2C(=O)c3cc(C(C)(C)C)nn3CC2(C)C(=O)NCc2ccccc2)cc1 (stereo not drawn),4.54,0,7.91,5.32,2.89
CC(C)CNC(=O)/C=C/CCCCc1ccc2c(c1)OCO2,-1.38,1.36,4.69,-11.3,-7.02

# From PubChem BioAssay AID1745853 (National Center for Advancing Translational Sciences (NCATS), 2022)
